{"source": "PubChem BioAssay AID662", "about": "(National Center for Advancing Translational Sciences (NCATS), 2007)", "note": "Screen size: about 71,000 compounds; about 1,800 (2.5%) were called active. The inconclusive results got no clear call from the source; some entries with a clear call stand among them for comparison. The call rests on the fitted dose curve; in most records, active means well fitted activation curve with a large enough effect in the signal ratio, with a control signal flat (not every such curve was filed as active); inconclusive means small, poorly fitted or top-dose-only effect, or effect the other way, or a change in a side signal; inactive means flat fitted curve, though single readings scatter; the % refers to the signal ratio. Potencies beside an inconclusive call are fits to weak or partial responses and may not hold up. Potency means the concentration at half of the fitted maximal effect; tags describe the fitted curve by direction and shape.", "data": [{"assay": "Cell signaling CRE-BLA (Fsk stim); on activity change, negative = inhibition: % of control where 0% means no effect", "details": "CHO CRE-bla reporter (cAMP response element driving beta-lactamase), forskolin EC10, beta-lactamase ratio; activity change, negative = inhibition: at 38.2 µM (top of the series) unless noted", "method_in_brief": "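The 460nm/530nm emission ratio after CCF4 loading defined %Activity, from which AC50 values were obtained. CRE-bla CHO cells received compound dilution series together with an EC10 level of NKH 477 for 3 hours at 37 degrees Celsius.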", "values": [{"smiles": "COc1ccc(S(=O)(=O)N(Cc2ccccc2)Cc2nc(-c3ccccc3)no2)cc1", "activity change, negative = inhibition": "inconclusive: -3.59%"}, {"smiles": "O=c1c2ccccc2oc2cc(O)c([C@@H]3COC[C@@H](CO)[C@@H](O)[C@@H](O)[C@H]3O)c(O)c12", "Potency": "inconclusive: 15.8 µM [falling, partial curve]"}, {"smiles": "COc1ccc(NC(=O)CCc2nc(-c3ccccc3F)no2)cc1", "activity change, negative = inhibition": "inconclusive: -1.77%"}, {"smiles": "CCCc1c(C)c2ccccc2[nH]c1=O", "activity change, negative = inhibition": "inconclusive: 28.2%"}, {"smiles": "COc1ccccc1CNc1ccnc(-c2ccc3c(c2)OCO3)n1", "activity change, negative = inhibition": "inactive: 13.6%"}, {"smiles": "O=C(c1ccncc1)N1CCC2(CCCN(C(c3ccccc3)c3ccccc3)C2)CC1", "Potency": "inconclusive: 12.6 µM [rising, partial curve]"}, {"smiles": "O=C(Oc1cccnc1)c1ccc(Cl)c(Cl)c1", "activity change, negative = inhibition": "inconclusive: 7.77%"}, {"smiles": "COc1ccc(S(=O)(=O)N2CCN(c3ccc(C)cc3C)CC2)cc1OC", "Potency": "inconclusive: 12.6 µM [rising, partial curve]"}, {"smiles": "COc1ccc(Oc2ncc3ncc(=O)n(CCC#N)c3n2)cc1", "activity change, negative = inhibition": "inconclusive: 0.708%"}, {"smiles": "COCC(=O)N1CCC2(CC1)CN(Cc1ccccc1OC)C2", "activity change, negative = inhibition": "inactive: -4.06%"}, {"smiles": "CCN(CCNC(=O)CS(=O)(=O)Cc1nc(-c2cccc(OC)c2)oc1C)c1ccccc1", "activity change, negative = inhibition": "inconclusive: -18.9%"}, {"smiles": "COc1ccccc1-c1nc(C#N)c(N2CCC(Cc3ccccc3)CC2)o1", "Potency": "inconclusive: 5.01 µM [rising, partial curve]"}, {"smiles": "COc1ccc(-c2cc(NCc3ccccn3)n3ncnc3n2)cc1", "Potency": "inconclusive: 1.26 µM [rising, partial curve]"}, {"smiles": "CN(C)Cc1ccccc1-c1cncnc1NC1CC1", "activity change, negative = inhibition": "inactive: -2.57%"}, {"smiles": "CN1/C(=C\\P(=O)(N(C)C)N(C)C)C(C)(C)c2ccccc21", "Potency": "inconclusive: 5.01 µM [falling, single point]"}, {"smiles": "Cc1ccc(C)c2[nH]c(=O)c(CCNC(=O)CC(C)(C)C)cc12", "Potency": "inconclusive: 10 µM [rising, single point]"}, {"smiles": "CCCn1c(N2CCN(CC(=O)c3c(C)n(C)c4ccccc34)CC2)nc2c1c(=O)[nH]c(=O)n2C", "Potency": "active: 7.94 µM"}, {"smiles": "CC(=O)Oc1cc(OC(C)=O)c2c(C)cc(=O)oc2c1", "activity change, negative = inhibition": "inactive: 0.732%"}, {"smiles": "CN(C)c1ccc(-c2nccc(Nc3ccc(F)cc3)n2)cc1", "Potency": "inconclusive: 15.8 µM [rising, single point]"}, {"smiles": "O=C(Nc1ccccc1)N(Cc1ccc2c(c1)OCO2)Cc1nc2ccccc2c(=O)[nH]1", "activity change, negative = inhibition": "inconclusive: 49.8%"}, {"smiles": "COc1ccc(NC(=O)CCNC(C)=O)cc1NS(=O)(=O)c1ccc(F)cc1", "activity change, negative = inhibition": "inconclusive: -24.3%"}, {"smiles": "COc1ccc(OC)c(S(=O)(=O)N2Cc3ccccc3CC2C(=O)Nc2nccs2)c1", "note": "(configuration not stated)", "activity change, negative = inhibition": "inactive: -16.1%"}, {"smiles": "COCCOC(=O)C1=C(C)NC2=C(C(=O)CCC2)C1c1ccc(N(C)C)cc1", "note": "(configuration not stated)", "activity change, negative = inhibition": "inactive: 11%"}, {"smiles": "O=C(NC1CCSC1=O)c1ccc(Cl)cc1", "note": "(configuration not stated)", "activity change, negative = inhibition": "inconclusive: -27.3% [at 7.6 µM]"}, {"smiles": "NC(=O)C1CCN(C(=O)c2cc(S(=O)(=O)N3CCOCC3)c(Cl)cc2Cl)CC1", "activity change, negative = inhibition": "inconclusive: -4.11%"}, {"smiles": "COc1ccc(NC(=O)c2cnc3sccn3c2=O)cc1OC", "activity change, negative = inhibition": "inactive: 12.1%"}, {"smiles": "O=C(NCc1n[nH]c(=S)n1-c1cccc(Cl)c1)c1ccc(S(=O)(=O)N2CCCC2)cc1", "activity change, negative = inhibition": "inconclusive: 2.31%"}, {"smiles": "Cc1nc(N2CCN(Cc3ccc4c(c3)OCO4)CC2)nc2c1C(=O)CC(c1ccco1)C2", "note": "(configuration not stated)", "activity change, negative = inhibition": "inconclusive: 24.7%"}, {"smiles": "COc1ccc(C)cc1NC(=O)c1cc2c(C)nc3ccccc3c2o1", "Potency": "inconclusive: 12.6 µM [rising, partial curve]"}, {"smiles": "c1ccc(Nc2nc(-c3cccnc3)nc3ccccc23)cc1", "Potency": "active: 10 µM"}, {"smiles": "O=C(Nc1cc(C(=O)N2CCCC2)ccc1N1CCCC1)c1ccccc1F", "activity change, negative = inhibition": "inconclusive: 8.87% [cytotoxic]"}, {"smiles": "CCOC(=O)CN(C(=O)CSc1nnc(-c2ccncc2)n1CCCN(C)C)c1ccccc1", "activity change, negative = inhibition": "inactive: -2.41%"}, {"smiles": "COc1ccc(-n2c(Cn3c(=O)sc4ccccc43)nnc2SCC(=O)N2CCCC2)cc1", "activity change, negative = inhibition": "inactive: -4.11%"}, {"smiles": "COc1nc2ccc(C)cc2cc1-c1noc(-c2cccnc2)n1", "activity change, negative = inhibition": "inactive: -0.575%"}, {"smiles": "CCC(C)(C)n1nnnc1C(c1cccc(C#N)c1)N1CCN(c2cc(C)ccc2C)CC1", "note": "(configuration not stated)", "activity change, negative = inhibition": "inconclusive: -9.8%"}, {"smiles": "COc1ccc(NC(=O)N(CCC(C)C)C(C)c2ccccn2)c(OC)c1", "note": "(configuration not stated)", "Potency": "inconclusive: 12.6 µM [rising, partial curve]"}, {"smiles": "Oc1ccc(C=Nc2cccc3ncccc23)c(O)c1", "Potency": "inconclusive: 12.6 µM [rising, single point]"}, {"smiles": "CC[N+](C)(CC)CCOC(=O)C1c2ccccc2Oc2ccccc21", "activity change, negative = inhibition": "inactive: -3.75% [at 17.1 µM]"}, {"smiles": "O=C1C=C(NCc2ccco2)C2(CCCCC2)O1", "activity change, negative = inhibition": "inactive: 1.14%"}, {"smiles": "CCOC(=O)C1CCCN(C(=O)C2CCN(S(=O)(=O)CC)CC2)C1", "note": "(configuration not stated)", "activity change, negative = inhibition": "inconclusive: -11.7%"}, {"smiles": "Cn1c(=O)c(-c2cccc(F)c2)nc2cncnc21", "Potency": "inconclusive: 25.1 µM [rising, single point]"}, {"smiles": "O=S(=O)(O)CCCc1cccc2ccccc12", "Potency": "inconclusive: 5.01 µM [rising, single point]"}, {"smiles": "CC1Cc2ccccc2N1C(=O)C1CCCN(S(=O)(=O)c2cccc3cccnc23)C1", "note": "(configuration not stated)", "activity change, negative = inhibition": "inactive: -14.5%"}, {"smiles": "COc1ccc2oc(C(=O)C3CC3)c(NC(=O)CCCN3C(=O)c4ccccc4C3=O)c2c1", "activity change, negative = inhibition": "inactive: 5.36%"}, {"smiles": "CCOC(=O)c1[nH]c(C)c(C(=O)NC2CCN(C(=O)OCC)CC2)c1C", "activity change, negative = inhibition": "inconclusive: 8.02%"}, {"smiles": "COc1cccc(-c2nn(C)c3sc(C(=O)NCc4ccccn4)cc23)c1", "Potency": "active: 7.94 µM"}, {"smiles": "C/C(=C1\\SC(N2CCOCC2)=NC1=O)c1ccc(C)cc1", "activity change, negative = inhibition": "inactive: 7.9%"}, {"smiles": "Cc1noc(C)c1C(=O)N1CCC2(CC1)CCN(c1ncccn1)CC2", "activity change, negative = inhibition": "inactive: -0.311%"}, {"smiles": "O=C(Cn1c2c(c(-c3ccccc3)cc1=O)CCCC2)N1CCCCCC1", "Potency": "inconclusive: 12.6 µM [falling, single point]"}, {"smiles": "CCOc1ccc(OCC)c(NC(=O)CSc2nc3cccnc3n2C)c1", "Potency": "inconclusive: 3.16 µM [falling, single point]"}, {"smiles": "Cc1ccc(S(=O)(=O)N2CCC(C(=O)N3CCC(C(=O)NCc4cccnc4)CC3)CC2)cc1", "activity change, negative = inhibition": "inconclusive: -3.47%"}, {"smiles": "Cc1ccc(C)c2[nH]c(=O)c(CN(Cc3ccco3)S(=O)(=O)c3ccc4c(c3)OCCO4)cc12", "activity change, negative = inhibition": "inactive: -1.16%"}]}]}
